Common to all, as to assay type: binding, human
One assay concerns Bel7402-V13 cells. As to the kind of experiment: flow immunofluorescence, positive cells in parental and sphere cells. The note with it: BEL7402 V13, Table 32. Here is the method: (§1) The human liver cancer cell line Bel7402-V13 and MHCC97L cells were cultured for 5 days in a serum-free manner, and the Hetumomab^+ cells in the parental cells and in the cells from sphere culture were detected by viable cell flow fluorescence cytometry. […] That is, after serum-free culture, Hetumomab^+ cells of the liver cancer cell line were enriched.
(§2) As described above, four cell lines, SNU-5, BGC-823, MHCC-97L, and BEL7402 V13, were used to harvest both parental cells and tumor-stem-cell-rich sphere cells. […] The results are as follows:
(§3) According to the aforementioned method, four cell lines, SNU-5, BGC-823, MHCC-97L, and BEL7402 V13, were used to harvest both parental cells and tumor-stem-cell-rich sphere cells. […]

The test system of the next assay is MHCC97L cells. Described as above. The note with it: MHCC-97L, Table 32. How it is done: as §1, §2, §3
The next assay relates to BGC-823 cells. Described as above. The following applies: BGC-823, Table 32. How it is done:
(§4) The human gastric cancer cell line SNU-5 and BGC-823 cells were cultured for 5 days in a serum-free manner, and the Hetumomab^+ cells in the parental cells and in the cells from sphere culture were detected by viable cell flow fluorescence cytometry. […] That is, after the serum-free culture, Hetumomab^+ cells of the gastric cancer cell line were enriched.
as §2, §3

A further assay deals with SNU-5 cells. The assay is described as above. The note with it: SNU-5, Table 32. Here is the method:
as §4, §2, §3

Assay [1] concerns Hetumomab target antigen in liver, lung, gastric cancer tissue sections. The assay is described as follows: immunohistochemistry of antigen-positive and negative tissue sections. The note with it: Example 11.

1 molecule from patent US20210147571A1, “MONOCLONAL ANTIBODY TARGETING HUMAN TUMOR STEM CELLS AND USE THEREOF” (Suzhou Bojuhua Biomedical Technology Co. Ltd, priority 2017, published 2021) can be followed below.

B1: Hetuzumab H5L12: humanized antibody of heavy chain version H5 (SEQ ID NO:36) and light chain version L12 (SEQ ID NO:48) (antibody)
heavy: QVTLKESGPTLVKPTQTLTLTCTFSGFSLSTSGMGVSWIRQPPGKALEWLAHIYWDDDKRYNPSLKSRLTISKDTSKNQVVLTMTNMDPVDTATYYCARSFYYYAANSFAYWGQGTLVTVSS[human IgG1 constant region left out here]
light: DIVMTQTPFSLPVTLGQPASISCRSSKSLLHSNGITYLYWFLQKPGQSPQLLIYQMSNLASGVPDRFSGSGSGTDFTLKISRVEAEDVGVYYCAQNLELYTFGQGTKVEIKRTVAAPSVFIFPPSDEQLKSGTASVVCLLNNFYPREAKVQWKVDNALQSGNSQESVTEQDSKDSTYSLSSTLTLSKADYEKHKVYACEVTHQGLSSPVTKSFNRGEC
modifications: Humanized heavy chain H5; Humanized light chain L12
Regarding B1, the “positive rate, Parent” value was 5.38% with Bel7402-V13 cells, 5.25% with MHCC97L cells, 2.90% in the assay with BGC-823 cells and 2.63% in the assay on SNU-5 cells. For the same molecule, the “positive rate, Sphere” value in the assay with Bel7402-V13 cells was found to be 8.39%; with MHCC97L cells, 10.61%; in the assay on BGC-823 cells, 4.44%; in the assay on SNU-5 cells it was 4.10%. In addition, the “staining of negative tissue sections” value in assay [1] (10 negative sections) was “did not stain”. Moreover, the “staining of target antigen-positive tissue sections” value in assay [1] (10 positive sections) is “positively stain”.
